# Test results published in PubChem BioAssay AID652104 (National Center for Advancing Translational Sciences (NCATS), 2013).
# Hit rate of the full screen: of about 410,000 compounds, about 7,200 (1.8%) were called active. The inconclusive results got no clear call from the source; some entries with a clear call stand among them for comparison. Calls come from the whole dose curve; as a rule, active = well fitted activation curve with a large enough effect; inconclusive = small, poorly fitted or top-dose-only effect, or another doubt; inactive = no such curve, though single readings can be large or run the other way. No potency is given beside an inconclusive call; the fits are too rough.
# Test: qHTS of TDP-43 Inhibitors; note: nearly all actives have a fitted effect of over 50% in size; for growth rescue (activation): % of control where 0% means no effect
# Conditions: TDP-43 expressing yeast growth rescue, BacTiter-Glo, 24 h; growth rescue (activation): at 46.1 µM (top of the series) unless noted
# Procedure, shortened: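 In this qHTS, compounds that restore growth of yeast expressing TDP-43 appear as activators. Cells (OD600=0.02, galactose medium, raffinose-pregrown) are incubated with compound 24 hr at 30 deg C and growth is quantified by BacTiter-Glo.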
# Potency is the fitted concentration of half-maximal effect; tags give direction and shape of the fitted curve.
Compound,growth rescue (activation),Potency
COC(=O)C1CCN(S(=O)(=O)c2cc3c4c(c2)C(C)C(=O)N4CCC3)CC1 (stereo unspecified),inactive: 0% [at 9.22 µM],
COc1cc(SC)ccc1C(=O)N1CCN(Cc2ccccc2)CC1,inactive: 1.83%,
S=C(NCc1ccccc1)NC1CCSc2ccccc21 (stereo unspecified),,"inconclusive [activator, single point]"
CC(C)c1nc(SCC(=O)N2CCCCCC2)c2c(=O)n(C)c(=O)n(C)c2n1,inactive: 20.1%,
CCOC(=O)c1noc2ncnc(N3CCN(c4ccccc4OC)CC3)c12,,"inconclusive [activator, partial curve]"
CCCCn1c(-c2nonc2N)nc2ccccc21,,"inconclusive [activator, partial curve]"
CCCC[C@H]1COCCS(=O)(=O)N1Cc1cccc([N+](=O)[O-])c1,,"inconclusive [activator, partial curve]"
CCn1c2ccccc2c2cc(C3C(C#N)=C(N)Oc4n[nH]c(COC)c43)ccc21 (stereo unspecified),inactive: -3.11%,
Cc1ccc(C)c(C(=O)COC(=O)c2nn(C)c(=O)c3ccccc23)c1,,"inconclusive [activator, partial curve]"
N#Cc1cc(Oc2cccc3cccnc23)c(-n2nnc3ccccc32)cc1C#N,inactive: -24.2%,
CCOc1ccc(-n2c(C)cc(C(=O)CCl)c2C)cc1,,active: 8.91 µM
CC1(C(=O)NCc2ccc(Cl)cc2)CCN1C(=O)Cc1ccc(Cl)cc1Cl (stereo unspecified),,active: 31.6 µM
CCOC(=O)N1CCN(c2ncnc3scc(-c4ccc(Cl)cc4)c23)CC1,,"inconclusive [activator, partial curve]"
Nc1nn(-c2ccccc2)c(N)c1N=Nc1ccccc1F,,active: 12.6 µM
COC(=O)C1CCN(c2c([N+](=O)[O-])cc(C(F)(F)F)cc2[N+](=O)[O-])CC1,,"inconclusive [activator, partial curve]"
Nc1c2c(nc3ccccc13)CCCC2,,"inconclusive [activator, single point]"
Nn1cnc2scc(-c3ccc(Cl)cc3)c2c1=O,,"inconclusive [activator, single point]"
COc1ccc([N+](=O)[O-])cc1NC(=O)CSCc1ccccc1,,active: 12.6 µM
Cc1ccc2c(CC(=O)NCC3COc4ccccc4O3)coc2c1 (stereo unspecified),,"inconclusive [activator, single point]"
COc1ccc(NC(=O)c2cc3ccccc3cc2OC)cc1,,"inconclusive [activator, single point]"
Cc1ccc(C)c(NC(=O)Cc2csc(-c3ccccc3)n2)c1,,"inconclusive [activator, full curve, poor fit]"
CC(=Nc1ccccc1)C1=C(O)C(CC(C)C)NC1=O (stereo unspecified),,"inconclusive [activator, single point]"
CCOC(=O)c1ccccc1NC(=O)CSc1nc2ncccc2[nH]1,inactive: 17.8%,
Cc1ccc(C)c(N(C)C(=O)C2CCN(S(=O)(=O)c3cccc4nsnc34)CC2)c1,inactive: 13.9%,

Compound,growth rescue (activation),Potency
COc1ccc(-c2nnn3c2nc(N2CCCC(C)C2)c2ccccc23)cc1 (stereo unspecified),inactive: 9.55%,
CCCNC(=O)c1ccc(COc2ccc(C)cc2)o1,inactive: 14.5%,
CCOC(=O)C1CCCN(S(=O)(=O)c2ccc3[nH]c(=O)ccc3c2)C1 (stereo unspecified),,"inconclusive [activator, partial curve, poor fit]"
O=C(CS(=O)c1ccccc1[N+](=O)[O-])Oc1ccc(Br)cc1 (stereo unspecified),inactive: -91.5%,
CC(=O)c1ccc(N2CCN(C(=O)NCc3noc4ccc(C)cc34)CC2)cc1,,"inconclusive [activator, partial curve]"
Cc1ccc(Nc2c([N+](=O)[O-])c(=O)n(C)c3ccccc23)cc1,,"inconclusive [activator, single point]"
O=C(N(c1ccccc1)c1ccccc1)n1ccnc1,,"inconclusive [activator, single point]"
O=C(NCC1CCCO1)c1ccccc1-c1nc(-c2ccc(F)cc2)no1 (stereo unspecified),,"inconclusive [activator, partial curve]"
c1ccc(-c2cn(-c3ccccc3)c3ncnc(N4CCCCC4)c23)cc1,,active: 17.8 µM
CCOC(=O)C1C(=O)C=C(c2ccc(C)cc2)CC1c1ccc([N+](=O)[O-])cc1 (stereo unspecified),,"inconclusive [activator, single point]"
CCN(CC)C(=O)C1CCCN(c2ccc([N+](=O)[O-])cc2[N+](=O)[O-])C1 (stereo unspecified),,"inconclusive [activator, single point]"
CSc1nc(-c2ccccc2)nn1C(=O)c1ccccc1,,"inconclusive [activator, partial curve]"
CCOC(=O)C1=C(C)NC(C)=C(C(=O)OCC)C1c1cccc([N+](=O)[O-])c1,,active: 25.1 µM
CC(Nc1ccccc1N1CCCCC1)C(=O)N1CCc2ccccc21 (stereo unspecified),,"inconclusive [activator, partial curve]"
COCC(=O)NNC(=O)c1ccc(OC)cc1,,"inconclusive [activator, full curve, poor fit]"
CCn1ncc(Br)c1C(=O)Nc1cc([N+](=O)[O-])ccc1C,,"inconclusive [activator, partial curve]"
Cc1c(C(C)(C)O)[nH]c2cc(C(F)(F)F)ccc12,,"inconclusive [activator, single point]"
O=C(OCc1ccc([N+](=O)[O-])cc1)C1CCN(S(=O)(=O)c2ccccc2)CC1,,active: 10 µM
COc1ccc(N2CCN(CC(O)COc3ccc(C(C)(C)C)cc3)CC2)cc1 (stereo unspecified),,active: 12.6 µM
Clc1ccc2nc(-c3ccccn3)c(Nc3ccc4c(c3)OCO4)n2c1,,"inconclusive [activator, single point]"
CCOC(=O)c1c(CC(C)C)csc1NC(=O)COC(=O)C1=NNC(=O)CC1,,"inconclusive [activator, partial curve]"
COc1ccc(C(=O)NCC2CCCCC2)cc1S(=O)(=O)N1CCCC1,inactive: 4.93%,
O=S(=O)(NCCc1csc(-c2ccc(F)cc2)n1)c1ccc(Cl)cc1,,active: 11.2 µM
O=C(O)c1cccc(-c2ccccc2)c1O,,"inconclusive [activator, single point]"

Compound,growth rescue (activation),Potency
O=C(CN1C(=O)C(=O)N(C2CCCC2)C1=O)Nc1cc(Cl)ccc1[N+](=O)[O-],inactive: -11.5%,
CC(C)(C)CNC(=O)C1(C)CCN1C(=O)C1(c2ccccc2)CC1 (stereo unspecified),inconclusive: 37.3% [activator],
CCN1C(=O)[C@H]2[C@@H](c3ccc(-c4ccc(OC)cc4)cc3)N3CCC[C@@]3(C(=O)OC)[C@H]2C1=O,,"inconclusive [activator, partial curve]"
CCOc1ccc(OCCOc2ncnc3ccccc23)cc1,,"inconclusive [activator, partial curve]"
COc1ccc(-c2ccccc2C2=CC(=O)CC(C)(C)C2=O)cc1,,"inconclusive [activator, partial curve]"
Cc1c(Cl)c([N+](=O)[O-])nn1CCCC(=O)N(Cc1ccccc1)Cc1ccccc1,,"inconclusive [activator, single point]"
N/C(Cc1ccc([N+](=O)[O-])cc1)=N\OC(=O)COc1ccccc1Cl,,"inconclusive [activator, partial curve]"
COc1ccc(CC(=O)N2CCCc3ccccc32)cc1,,"inconclusive [activator, single point]"
CCCc1nnc(NC(=O)c2nc(S(=O)(=O)Cc3ccc(C)cc3)ncc2Cl)s1,,active: 11.2 µM
O=C(c1ccc2c(Cl)c3c(nc2c1)CCCC3)N1CCN(c2ccccc2)CC1,,"inconclusive [activator, full curve, poor fit]"
CC(C)(C)C1CCc2onc(C(=O)Nc3sc4c(c3C(N)=O)CCCC4)c2C1 (stereo unspecified),inactive: 33.2%,
O=c1c2c3c(sc2nc2n1CCC2)CCCC3,inactive: 20.4%,
Cc1nc2sc3c(c2c(=O)[nH]1)CCC3,,"inconclusive [activator, partial curve, poor fit]"
O=c1cc(N2CCCCC2)c(-c2ccccc2)nn1Cc1ccccc1,,"inconclusive [activator, partial curve]"
O=C(NCc1ccccc1)C1C(c2ccc3c(c2)OCO3)=Nc2ccccc2N1C(=O)c1ccco1 (stereo unspecified),,"inconclusive [activator, partial curve]"
CC1(C)Cc2c(ccc3ccccc23)C(=O)N1,,"inconclusive [activator, single point]"
CC1(Cc2ccc(Cl)cc2)C(=O)Nc2ccc(-c3ccc(F)c(Cl)c3)cc21 (stereo unspecified),inactive: 21.1%,
COc1ccc(-c2cc(C(F)(F)F)n3nc(C)cc3n2)cc1,,"inconclusive [activator, partial curve]"
COc1ccc(-c2nc(S(=O)(=O)c3ccccc3)c(N3CCN(C)CC3)o2)cc1,,"inconclusive [activator, partial curve, poor fit]"
CCOC(=O)c1cccc(-c2c(-c3ccccc3)ncc3cc(OC)c(OC)cc23)c1,,"inconclusive [activator, single point]"
Cc1cc(=O)n2c3ccccc3n(CC(O)CN3CCCCC3)c2c1C#N (stereo unspecified),inactive: -24%,
CCCC(=O)Nc1nc2c(OC)ccc(OC)c2s1,,"inconclusive [activator, partial curve]"
COc1ccc(Cl)cc1NC(=O)COC(=O)c1ccc(C)o1,,"inconclusive [activator, partial curve]"
